The record followed here is PMC9911399, “Two distinct binding modes provide the RNA-binding protein RbFox with extraordinary sequence specificity”.

Positions count from the first letter of the chain named. Some of the results follow.

To fix the notation:
B1: AGUCAGC (DNA:RNA)
RNA: GGGAGACCGGAAUUCAGAUUGUCCAGUCAGCUUAAAUCCCGUCGUAGCCACCA
DNA 1: CAATCTGAATTCCGGTCTCCC
DNA 2: TGGTGGCTACGACGGGATT
B2: ACCCACA (DNA:RNA)
RNA: B1 RNA with G26C, U27C, G30C, C31A
DNA 1: CAATCTGAATTCCGGTCTCCC
DNA 2: TGGTGGCTACGACGGGATT
B3: AACACAU (DNA:RNA)
RNA: B1 RNA with G26A, U27C, C28A, A29C, G30A, C31U
DNA 1: CAATCTGAATTCCGGTCTCCC
DNA 2: TGGTGGCTACGACGGGATT
B4: UCUGAGC (DNA:RNA)
RNA: B1 RNA with A25U, G26C, C28G
DNA 1: CAATCTGAATTCCGGTCTCCC
DNA 2: TGGTGGCTACGACGGGATT
B5: GCAGCCC (DNA:RNA)
RNA: B1 RNA with A25G, G26C, U27A, C28G, A29C, G30C
DNA 1: CAATCTGAATTCCGGTCTCCC
DNA 2: TGGTGGCTACGACGGGATT
B6: GACGCAA (DNA:RNA)
RNA: GGGAGACCGGAAUUCAGAUUGUCCGACGCAAUUAAAUCCCGUCGUAGCCACCA
DNA 1: CAATCTGAATTCCGGTCTCCC
DNA 2: TGGTGGCTACGACGGGATT
B7: ACUGCGA (DNA:RNA)
RNA: B1 RNA with G26C, C28G, A29C, C31A
DNA 1: CAATCTGAATTCCGGTCTCCC
DNA 2: TGGTGGCTACGACGGGATT
B8: AUGCGUU (DNA:RNA)
RNA: B1 RNA with G26U, U27G, A29G, G30U, C31U
DNA 1: CAATCTGAATTCCGGTCTCCC
DNA 2: TGGTGGCTACGACGGGATT
B9: UGACGUG (DNA:RNA)
RNA: B1 RNA with A25U, U27A, A29G, G30U, C31G
DNA 1: CAATCTGAATTCCGGTCTCCC
DNA 2: TGGTGGCTACGACGGGATT
B10: UAGUCGU (DNA:RNA)
RNA: B6 RNA with G25U, C27G, G28U, A30G, A31U
DNA 1: CAATCTGAATTCCGGTCTCCC
DNA 2: TGGTGGCTACGACGGGATT
B11: CGAGCUG (DNA:RNA)
RNA: B6 RNA with G25C, A26G, C27A, A30U, A31G
DNA 1: CAATCTGAATTCCGGTCTCCC
DNA 2: TGGTGGCTACGACGGGATT
B12: GGCGUCU (DNA:RNA)
RNA: B6 RNA with A26G, C29U, A30C, A31U
DNA 1: CAATCTGAATTCCGGTCTCCC
DNA 2: TGGTGGCTACGACGGGATT
B13: ACGGAGC (DNA:RNA)
RNA: B1 RNA with G26C, U27G, C28G
DNA 1: CAATCTGAATTCCGGTCTCCC
DNA 2: TGGTGGCTACGACGGGATT
B14: GACGGUG (DNA:RNA)
RNA: B6 RNA with C29G, A30U, A31G
DNA 1: CAATCTGAATTCCGGTCTCCC
DNA 2: TGGTGGCTACGACGGGATT
B15: CGCCCUA (DNA:RNA)
RNA: B6 RNA with G25C, A26G, G28C, A30U
DNA 1: CAATCTGAATTCCGGTCTCCC
DNA 2: TGGTGGCTACGACGGGATT
B16: AGGUCCG (DNA:RNA)
RNA: B1 RNA with U27G, C28U, A29C, G30C, C31G
DNA 1: CAATCTGAATTCCGGTCTCCC
DNA 2: TGGTGGCTACGACGGGATT
B17: CCAAGGC (DNA:RNA)
RNA: B1 RNA with A25C, G26C, U27A, C28A, A29G
DNA 1: CAATCTGAATTCCGGTCTCCC
DNA 2: TGGTGGCTACGACGGGATT
B18: CUGGAGU (DNA:RNA)
RNA: B1 RNA with A25C, G26U, U27G, C28G, C31U
DNA 1: CAATCTGAATTCCGGTCTCCC
DNA 2: TGGTGGCTACGACGGGATT
B19: GAACAAG (DNA:RNA)
RNA: B6 RNA with C27A, G28C, C29A, A31G
DNA 1: CAATCTGAATTCCGGTCTCCC
DNA 2: TGGTGGCTACGACGGGATT
B20: CUCAGGU (DNA:RNA)
RNA: B1 RNA with A25C, G26U, U27C, C28A, A29G, C31U
DNA 1: CAATCTGAATTCCGGTCTCCC
DNA 2: TGGTGGCTACGACGGGATT

The assay has as its target T1, RBFOX1 RRM RbFoxmut (Fox-RRM*) (Homo sapiens, UniProt Q9NWB1 109-208, R118D;E147R;N151S;E152T).
T1 sequence: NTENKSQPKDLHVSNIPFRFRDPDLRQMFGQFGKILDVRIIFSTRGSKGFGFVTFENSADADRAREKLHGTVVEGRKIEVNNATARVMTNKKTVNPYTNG
Nature of the assay: EMSA; HiTS-Eq, 1 nM pool, 10 min; buffer printed only for the single-RNA assays: 10 mM Tris pH 7.5, 150 mM NaCl, 3.4 mM EDTA, 0.001% NP-40, 30 C. The note with it: tags: His6 N-terminal (pET28a); label: 5' 32P. In short, it runs like this: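 A pool of RNA with 7 randomized nucleotides, 5′-radiolabelled and with DNA-annealed flanks, was equilibrated at 1 nM for 10 min in 50 µL with purified RbFox RRM, wild type or mutant, across increasing protein concentrations. Free RNA was separated by 8% native PAGE, excised, reverse-transcribed, barcoded by PCR and sequenced. Relative association constants were obtained from read-count changes of each RNA species versus the control reaction and normalised to the cognate motif.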
With B1, the binding signal was 0.0738 KA relative to UGCAUGU. The result for B2 reads 0.135 KA relative to UGCAUGU; that for B3, 0.0837 KA relative to UGCAUGU; that for B4, 0.0986 KA relative to UGCAUGU.

For the molecule B5, the binding signal was 0.0521 KA relative to UGCAUGU. As for B6, the binding signal was 0.0676 KA relative to UGCAUGU. The result for B7 reads 0.0809 KA relative to UGCAUGU; that for B8, 0.149 KA relative to UGCAUGU. The result for B9 reads 0.161 KA relative to UGCAUGU; that for B10, 0.119 KA relative to UGCAUGU. The value for B11 was 0.0958 KA relative to UGCAUGU; that for B12 was 0.122 KA relative to UGCAUGU; that for B13 was 0.0985 KA relative to UGCAUGU. Turning to B14, the binding signal was 0.09 KA relative to UGCAUGU. The result for B15 reads 0.0877 KA relative to UGCAUGU. On to B16, for which the binding signal is 0.166 KA relative to UGCAUGU. For B17, the binding signal is 0.0778 KA relative to UGCAUGU. On to B18, for which the binding signal is 0.124 KA relative to UGCAUGU. The result for B19 reads 0.0937 KA relative to UGCAUGU. The value for B20 was 0.118 KA relative to UGCAUGU.
